The whole screen tested about 310,000 compounds, of which about 14,000 (4.5%) showed an effect of 50% or more. The effect is printed as a negative number. The list shows a part of the results.
target: human ether-à-go-go-related gene (hERG) potassium channel (human, UniProt Q12809); assay: primary screen, population patch clamp on CHO cells stably expressing hERG
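Note: peak tail current of the secondary pulse compared with the same well before compound.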

human ether-à-go-go-related gene (hERG) potassium channel, sequence (Q12809 whole entry, looked up): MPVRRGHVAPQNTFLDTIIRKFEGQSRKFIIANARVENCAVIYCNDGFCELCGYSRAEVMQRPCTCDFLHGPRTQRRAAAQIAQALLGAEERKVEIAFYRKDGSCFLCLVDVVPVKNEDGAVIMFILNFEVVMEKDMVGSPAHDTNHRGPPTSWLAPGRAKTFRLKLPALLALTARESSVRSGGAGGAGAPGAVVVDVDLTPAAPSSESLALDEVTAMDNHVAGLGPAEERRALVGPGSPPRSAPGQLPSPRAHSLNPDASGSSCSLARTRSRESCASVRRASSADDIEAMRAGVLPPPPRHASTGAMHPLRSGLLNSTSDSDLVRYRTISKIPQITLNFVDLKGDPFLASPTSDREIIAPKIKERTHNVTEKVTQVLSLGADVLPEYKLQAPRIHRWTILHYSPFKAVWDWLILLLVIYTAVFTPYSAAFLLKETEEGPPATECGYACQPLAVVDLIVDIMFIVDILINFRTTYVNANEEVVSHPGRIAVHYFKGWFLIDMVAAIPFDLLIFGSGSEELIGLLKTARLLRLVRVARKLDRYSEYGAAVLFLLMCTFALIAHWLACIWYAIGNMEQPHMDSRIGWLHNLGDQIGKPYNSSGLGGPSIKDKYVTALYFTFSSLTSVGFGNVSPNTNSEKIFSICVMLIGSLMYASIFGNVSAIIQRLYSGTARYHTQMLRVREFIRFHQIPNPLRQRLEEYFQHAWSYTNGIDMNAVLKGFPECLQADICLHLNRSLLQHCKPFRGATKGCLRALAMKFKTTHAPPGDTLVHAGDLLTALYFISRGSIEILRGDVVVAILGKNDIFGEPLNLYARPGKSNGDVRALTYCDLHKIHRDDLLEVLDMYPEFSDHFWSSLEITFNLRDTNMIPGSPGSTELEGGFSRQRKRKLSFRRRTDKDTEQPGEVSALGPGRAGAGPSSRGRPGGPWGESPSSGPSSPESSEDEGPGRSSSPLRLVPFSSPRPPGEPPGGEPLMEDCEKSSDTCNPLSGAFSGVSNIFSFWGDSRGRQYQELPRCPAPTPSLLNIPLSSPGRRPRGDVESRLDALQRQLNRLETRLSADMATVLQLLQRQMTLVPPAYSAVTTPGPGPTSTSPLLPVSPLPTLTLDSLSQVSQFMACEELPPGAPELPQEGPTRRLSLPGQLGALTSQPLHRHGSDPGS

| SMILES | hERG current change (%, negative = inhibition) at 10uM |
| --- | --- |
| Cc1ccc(N2C(=O)c3ccccc3C2Nc2ccccc2)nc1 (centres unmarked) | 2.74% |
| O=C(NNc1ccc(C(F)(F)F)cc1[N+](=O)[O-])c1ccc(NS(=O)(=O)c2ccc(F)cc2)cc1 | -1.05% |
| COc1ccc(-c2sc3ccccc3c2C#CCO)cc1 | 16.8% |
| CCCc1cc(=O)[nH]c(SCc2cc(C(=O)OC)c(C)o2)n1 | 8.44% |
| COc1ccc(S(=O)(=O)N(C)c2ccc(C(=O)N3CCOCC3)cc2)cc1OC | -0.919% |
| O=C(CN1CCN(Cc2ccc(Cl)cc2)CC1)N/N=C/c1ccccc1F | -68.7% |
| Cc1ccc(OCC(=O)N(c2ccccn2)C2CCCCC2)c(C)c1 | -5.83% |
| CCOc1cc(/C=C2\N=C(C)OC2=O)cc(Cl)c1OCC(=O)OC | -0.823% |
| Cc1cccc2sc(NC(=O)CCNS(=O)(=O)c3cccs3)nc12 | -18.8% |
| CC(C)NC(=O)CSc1nccc(-c2cccs2)n1 | 8.75% |
| Cc1cccc(OCC(=O)N(C)c2c(N)n(Cc3ccccc3)c(=O)[nH]c2=O)c1C | 14.2% |
| COc1ccc(C(C)=O)cc1CN1CCCCC1.Cl | 8.02% |
| COc1ccc(-c2cnnn2-c2ccc(NC(=O)c3ccc(S(=O)(=O)N4CCCCC4)cc3)cc2)cc1 | 0.975% |
| Cc1ccc(C)c(N2CCN(S(=O)(=O)c3cc4c(cc3Cl)NC(=O)CO4)CC2)c1 | 13.3% |
| CCOc1ccc(C(C)NC(=O)c2ccccc2OCc2c(C)noc2C)cc1OCC (centres unmarked) | -23.8% |
| CCOc1ccc(NC2=NC(C(=O)NCc3ccccc3)CC(=O)N2)cc1 (centres unmarked) | 1.86% |
| CCc1nnc(NC(=O)CSc2nc(-c3ccc(OC)cc3)ns2)s1 | 11.3% |
| CCOC(=O)c1ccccc1NC(=O)c1ccc(F)cc1 | 21.3% |
| CC(C)(C)NC(=O)N1CCCN(c2ccc(C(F)(F)F)cn2)CC1 | -0.47% |

| SMILES | hERG current change (%, negative = inhibition) at 10uM |
| --- | --- |
| Cc1[nH]c2ccccc2c1NC(=O)CN1CCN(c2cccc(C(F)(F)F)c2)CC1 | -6.64% |
| CCc1ccc(NC(=O)NC2CCCCCCC2)cc1 | 9.86% |
| COc1cccc(Cn2c(Oc3cccc(C)c3)nc3c2c(=O)n(C)c(=O)n3C)c1 | -9.7% |
| Cc1ccc2occ(/C=N/O)c(=O)c2c1 | 12.7% |
| Cc1[nH]c2ccccc2c1C(=O)CN1C(=O)C(=O)N(Cc2ccco2)C1=O | -5.26% |
| O=C(N/N=C/c1ccco1)c1cc(-c2ccc(Cl)s2)[nH]n1 | 2.96% |
| O=C(N/N=C/c1cccnc1)c1cc(-c2ccccc2Cl)nc2ccccc12 | -40.6% |
| CCCCC[C@H](O)/C=C/[C@@H]1[C@@H](C/C=C\CCCC(=O)O)[C@@H](O)C[C@H]1O.NC(CO)(CO)CO | 9.22% |
| CC(C)(C)OC(=O)NN1CC(=O)N2[C@@H](Cc3c([nH]c4ccccc34)C2(C)C)C1=O | 27.7% |
| Cc1c(Br)cc(-c2nnco2)cc1Br | 11.8% |
| O=C(Nc1nc(-c2ccccn2)cs1)c1ccc([N+](=O)[O-])o1 | -1.32% |
| O=S(=O)(c1cc(F)ccc1F)N1CCN2CCCC2C1 (centres unmarked) | 17.7% |
| CC(=O)Nc1nonc1NC(C)=O | 15.7% |
| COc1ccc(-n2c(O)c(C=Nc3ccccc3)c3ccccc3c2=O)cc1OC | 14.2% |
| CCN(CC)S(=O)(=O)c1ccc(/C=C/C(=O)OCC(=O)Nc2ccc(C(N)=O)cc2)cc1 | 18.9% |
| COc1ccc(Br)cc1CN1CCN(C(=O)c2cccc(F)c2)CC1.O=C(O)C(=O)O | -39.2% |
| COc1ccccc1C(=O)N1c2ccccc2Sc2ccccc21 | -6.03% |
| CC(=O)NC(NC(C)=O)c1ccc(Br)cc1 | -4.97% |
| CCCCNC(=O)CN(c1cccc(F)c1)S(C)(=O)=O | -3.26% |

| SMILES | hERG current change (%, negative = inhibition) at 10uM |
| --- | --- |
| c1ccc(-n2cnc3ccccc32)cc1 | -4.05% |
| Cc1ccnc(NC(=O)COC(=O)C23CC4CC(CC(C4)C2)C3)n1 | 9.94% |
| COc1ccc(Cc2nn3c(Cn4nnc5ccccc54)nnc3s2)cc1 | -17.2% |
| O=C(Nc1c2c(nn1-c1ccccc1)CS(=O)(=O)C2)c1ccccc1Br | -0.51% |
| Cc1cc(C(=O)COC(=O)CN=C2NS(=O)(=O)c3ccccc32)c(C)n1CCc1ccc(Cl)cc1 | 11.8% |
| Cc1cccc(C(=O)Nc2cccc(C(=O)N/N=C/c3ccncc3)c2)c1 | -2.07% |
| Clc1ccccc1C1CC(c2ccccc2)=Nc2ccccc2N1 (centres unmarked) | 4.58% |
| CCC(=O)/C=C1\Sc2ccc(OC)cc2N1CCO | -0.298% |
| CSc1ncc(C(=O)Nc2cccnc2)c(C(F)(F)F)n1 | 7.5% |
| O=C(c1ccc(S(=O)(=O)N2CCCC2)cc1)N(c1ccc(F)cc1)C1C=CS(=O)(=O)C1 (centres unmarked) | -39.8% |
| O=c1c(-c2nnc(SCc3ccc(Cl)cc3)o2)cccn1Cc1ccccc1 | -46.2% |
| CCCn1nnc(NC(=O)c2cccc(OCc3ccccc3)c2)n1 | 11.9% |
| CCCCNC(=O)C(=O)N/N=C/c1ccc(OCC(=O)Nc2cccc(OC)c2)c(OC)c1 | -11.4% |
| O=C(NCc1ccccc1)c1nc[nH]c1C(=O)N1CCc2ccccc2C1 | 0.997% |
| CC1CCCCN1S(=O)(=O)c1ccc(NC(=O)c2cccs2)cc1 (centres unmarked) | -11.3% |
| O=c1[nH]c([S-])nc2sc3c(c12)CCCC3.[K+] | 3.14% |
| CCOc1cccc(C(=O)NCc2ccccc2)c1 | 15.4% |
| O=C(Nc1cccn(Cc2c(Cl)cccc2Cl)c1=O)C1CC1 | 15.8% |

From PMC4336329 (PLoS ONE, 2015)
